Measurements: the supplement of paper PMC10037445
Over roughly 2,900 compounds, “NF-kB SEAP reporter activity, fold change vs agonist alone” has its median near 0.99; the highest 2% begin near 2.6. Some of the results follow.

Assays:
RAW-Dual [1] = assay: NF-kB SEAP reporter activity, fold change vs agonist alone; higher = enhanced NF-kB activity
In short: (§1)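 Cytotoxic wells were those whose IncuCyte confluency was below 70% of agonist controls in both mask sets. The cells were RAW-Dual macrophages at 50,000 cells/well in DMEM on 384-well plates, dosed with 50 nL of library stock by pin tool, stimulated with a PRR agonist 1 h later, and kept at 37 °C, 5% CO2 for 20 hours. IRF and NF-κB reporter activity, as fold change over agonist-alone wells, came from supernatant read by QuantiLuc luminescence and QuantiBlue absorbance, respectively.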

RAW-Dual [2] = assay: NF-kB SEAP reporter activity, fold change vs agonist alone; cytotoxicity flag (confluency mask): not cytotoxic; higher = enhanced NF-kB activity
In short: as §1

RAW-Dual [3] = assay: NF-kB SEAP reporter activity, fold change vs agonist alone; cytotoxicity flag (confluency mask): cytotoxic (confluency <70% of control); higher = enhanced NF-kB activity
In short: as §1

[4] = library stock concentration (final ~1000-fold dilution): 10 mM, cytotoxicity flag (confluency mask): not cytotoxic, agonist: MPLA (TLR4) […]
[5] = agonist: ODN 1826 (TLR9) 0.5 ug/mL
[6] = agonist: Pam2CSK4 (TLR2/6) 0.1 ug/mL
[7] = agonist: Pam3CSK4 (TLR2/1) 0.1 ug/mL
[8] = library stock concentration (final ~1000-fold dilution): 10 mM, cytotoxicity flag (confluency mask): not cytotoxic, agonist: Imiquimod (TLR7) […]
[9] = library stock concentration (final ~1000-fold dilution): 10 mM water, cytotoxicity flag (confluency mask): not cytotoxic, agonist: Imiquimod (TLR7) […]
[10] = library stock concentration (final ~1000-fold dilution): 10 mM water, cytotoxicity flag (confluency mask): not cytotoxic, agonist: MPLA (TLR4) […]

## Cn1c(=O)cc(N2CCCC(N)C2)n(Cc2cc(F)ccc2C#N)c1=O.O=C(O)CCC(=O)O (centres undefined)
RAW-Dual [1]; [4]
  NF-kB SEAP reporter activity: 1.09

## Cn1c(=O)cc(N2CCCC(N)C2)n(Cc2cc(F)ccc2C#N)c1=O.O=C(O)CCC(=O)O (centres undefined) (library stock concentration (final ~1000-fold dilution): 10 mM)
RAW-Dual [2]; agonist: LPS (TLR4) 0.1 ug/mL
  NF-kB SEAP reporter activity: 1.1
RAW-Dual [2]; [5]
  NF-kB SEAP reporter activity: 0.953
RAW-Dual [2]; [6]
  NF-kB SEAP reporter activity: 1.04
RAW-Dual [2]; [7]
  NF-kB SEAP reporter activity: 1.06

## CC(C)(C)c1cc(O)c(C(C)(C)C)cc1O (library stock concentration (final ~1000-fold dilution): 10 mM)
RAW-Dual [2]; agonist: LPS (TLR4) 0.1 ug/mL
  NF-kB SEAP reporter activity: 0.802
RAW-Dual [2]; [5]
  NF-kB SEAP reporter activity: 0.415
RAW-Dual [2]; [6]
  NF-kB SEAP reporter activity: 0.179
RAW-Dual [2]; [7]
  NF-kB SEAP reporter activity: 0.278

## CC(C)(C)c1cc(O)c(C(C)(C)C)cc1O
RAW-Dual [1]; [8]
  NF-kB SEAP reporter activity: 1.42
RAW-Dual [1]; [4]
  NF-kB SEAP reporter activity: 1.37

## CC(C=CC1=C(C)CCCC1(C)C)=CC=CC(C)=CC(=O)O (library stock concentration (final ~1000-fold dilution): 1 mM)
RAW-Dual [2]; agonist: LPS (TLR4) 0.1 ug/mL
  NF-kB SEAP reporter activity: 0.67
RAW-Dual [2]; [5]
  NF-kB SEAP reporter activity: 1.25
RAW-Dual [2]; [6]
  NF-kB SEAP reporter activity: 0.689
RAW-Dual [2]; [7]
  NF-kB SEAP reporter activity: 0.773

## CC(C=CC1=C(C)CCCC1(C)C)=CC=CC(C)=CC(=O)O
RAW-Dual [1]; library stock concentration (final ~1000-fold dilution): 1 mM, cytotoxicity flag (confluency mask): not cytotoxic, agonist: Imiquimod (TLR7) […]
  NF-kB SEAP reporter activity: 1.41
RAW-Dual [1]; library stock concentration (final ~1000-fold dilution): 1 mM, cytotoxicity flag (confluency mask): not cytotoxic, agonist: MPLA (TLR4) […]
  NF-kB SEAP reporter activity: 0.816

## O=C(O)c1ccnc(C(=O)O)c1
RAW-Dual [1]; [8]
  NF-kB SEAP reporter activity: 0.985
RAW-Dual [1]; [4]
  NF-kB SEAP reporter activity: 1.07

## O=C(O)c1ccnc(C(=O)O)c1 (library stock concentration (final ~1000-fold dilution): 10 mM)
RAW-Dual [2]; agonist: LPS (TLR4) 0.1 ug/mL
  NF-kB SEAP reporter activity: 1.06
RAW-Dual [2]; [5]
  NF-kB SEAP reporter activity: 0.964
RAW-Dual [2]; [6]
  NF-kB SEAP reporter activity: 1.02
RAW-Dual [2]; [7]
  NF-kB SEAP reporter activity: 0.992

## CC(=O)NC(CC(=O)O)C(=O)NC(CCC(=O)O)C(=O)NC(C(=O)NC(C=O)CC(=O)O)C(C)C (centres undefined)
RAW-Dual [1]; [9]
  NF-kB SEAP reporter activity: 0.951
RAW-Dual [1]; [10]
  NF-kB SEAP reporter activity: 1.04

## CC(=O)NC(CC(=O)O)C(=O)NC(CCC(=O)O)C(=O)NC(C(=O)NC(C=O)CC(=O)O)C(C)C (centres undefined) (library stock concentration (final ~1000-fold dilution): 10 mM water)
RAW-Dual [2]; agonist: LPS (TLR4) 0.1 ug/mL
  NF-kB SEAP reporter activity: 1.18
RAW-Dual [2]; [5]
  NF-kB SEAP reporter activity: 1.15
RAW-Dual [2]; [6]
  NF-kB SEAP reporter activity: 1.28
RAW-Dual [2]; [7]
  NF-kB SEAP reporter activity: 1.08

## Cl.Clc1ccccc1CN1CCc2sccc2C1 (library stock concentration (final ~1000-fold dilution): 10 mM water)
RAW-Dual [2]; agonist: LPS (TLR4) 0.1 ug/mL
  NF-kB SEAP reporter activity: 1.21
RAW-Dual [2]; [5]
  NF-kB SEAP reporter activity: 1.03
RAW-Dual [2]; [6]
  NF-kB SEAP reporter activity: 1.11
RAW-Dual [2]; [7]
  NF-kB SEAP reporter activity: 1.43

## Cl.Clc1ccccc1CN1CCc2sccc2C1
RAW-Dual [1]; [9]
  NF-kB SEAP reporter activity: 0.922
RAW-Dual [1]; [10]
  NF-kB SEAP reporter activity: 1.2

## COc1cc2c3cc1Oc1c(OC)c(OC)cc4c1C(Cc1ccc(O)c(c1)Oc1ccc(cc1)CC3N(C)CC2)N(C)CC4.Cl.Cl (centres undefined) (library stock concentration (final ~1000-fold dilution): 10 mM)
RAW-Dual [2]; agonist: LPS (TLR4) 0.1 ug/mL
  NF-kB SEAP reporter activity: 1.44
RAW-Dual [2]; [5]
  NF-kB SEAP reporter activity: 0.2
RAW-Dual [2]; [6]
  NF-kB SEAP reporter activity: 1.08
RAW-Dual [2]; [7]
  NF-kB SEAP reporter activity: 1.19

## COc1cc2c3cc1Oc1c(OC)c(OC)cc4c1C(Cc1ccc(O)c(c1)Oc1ccc(cc1)CC3N(C)CC2)N(C)CC4.Cl.Cl (centres undefined)
RAW-Dual [1]; [8]
  NF-kB SEAP reporter activity: 0.379
RAW-Dual [1]; [4]
  NF-kB SEAP reporter activity: 1.37

## Nc1ccn(C2OC(CO)C(O)C2O)c(=O)n1 (centres undefined)
RAW-Dual [1]; [9]
  NF-kB SEAP reporter activity: 1.46
RAW-Dual [1]; [10]
  NF-kB SEAP reporter activity: 1.33

## Nc1ccn(C2OC(CO)C(O)C2O)c(=O)n1 (centres undefined) (library stock concentration (final ~1000-fold dilution): 10 mM water)
RAW-Dual [2]; agonist: LPS (TLR4) 0.1 ug/mL
  NF-kB SEAP reporter activity: 1.92
RAW-Dual [2]; [5]
  NF-kB SEAP reporter activity: 1.7
RAW-Dual [2]; [6]
  NF-kB SEAP reporter activity: 1.85
RAW-Dual [2]; [7]
  NF-kB SEAP reporter activity: 1.83

## COc1ccc2cc1Oc1ccc(cc1)CC1c3cc(c(OC)cc3CCN1C)Oc1c(O)c(OC)cc3c1C(C2)N(C)CC3 (centres undefined) (library stock concentration (final ~1000-fold dilution): 10 mM)
RAW-Dual [3]; agonist: LPS (TLR4) 0.1 ug/mL
  NF-kB SEAP reporter activity: 1.81
RAW-Dual [3]; [5]
  NF-kB SEAP reporter activity: 0.241
RAW-Dual [3]; [6]
  NF-kB SEAP reporter activity: 2.15
RAW-Dual [3]; [7]
  NF-kB SEAP reporter activity: 1.31

## COc1ccc2cc1Oc1ccc(cc1)CC1c3cc(c(OC)cc3CCN1C)Oc1c(O)c(OC)cc3c1C(C2)N(C)CC3 (centres undefined)
RAW-Dual [1]; library stock concentration (final ~1000-fold dilution): 10 mM, cytotoxicity flag (confluency mask): cytotoxic (confluency <70% of control), agonist: Imiquimod (TLR7) […]
  NF-kB SEAP reporter activity: 0.618
RAW-Dual [1]; library stock concentration (final ~1000-fold dilution): 10 mM, cytotoxicity flag (confluency mask): cytotoxic (confluency <70% of control), agonist: MPLA (TLR4) […]
  NF-kB SEAP reporter activity: 2.39

## Cn1cc(-c2[nH]c3cc(NC(=O)C(N)C4CCCCC4)cc4c3c2C=NNC4=O)cn1 (centres undefined) (library stock concentration (final ~1000-fold dilution): 10 mM)
RAW-Dual [2]; agonist: LPS (TLR4) 0.1 ug/mL
  NF-kB SEAP reporter activity: 3.51
RAW-Dual [2]; [5]
  NF-kB SEAP reporter activity: 2.74

## CC1COC2(CCN(c3nc(=O)c4cc(C(F)(F)F)cc([N+](=O)[O-])c4s3)CC2)O1 (centres undefined) (library stock concentration (final ~1000-fold dilution): 10 mM)
RAW-Dual [2]; agonist: LPS (TLR4) 0.1 ug/mL
  NF-kB SEAP reporter activity: 2.1
RAW-Dual [2]; [5]
  NF-kB SEAP reporter activity: 0.99
RAW-Dual [2]; [6]
  NF-kB SEAP reporter activity: 1.37
RAW-Dual [2]; [7]
  NF-kB SEAP reporter activity: 1.18

## CC1COC2(CCN(c3nc(=O)c4cc(C(F)(F)F)cc([N+](=O)[O-])c4s3)CC2)O1 (centres undefined)
RAW-Dual [1]; [8]
  NF-kB SEAP reporter activity: 0.984
RAW-Dual [1]; [4]
  NF-kB SEAP reporter activity: 1.03

## O=C1C(Cl)=C(N2CCOCC2)C(=O)N1c1ccc(Cl)c(Cl)c1 (library stock concentration (final ~1000-fold dilution): 10 mM)
RAW-Dual [2]; agonist: LPS (TLR4) 0.1 ug/mL
  NF-kB SEAP reporter activity: 0.429
RAW-Dual [2]; [5]
  NF-kB SEAP reporter activity: 0.739
RAW-Dual [2]; [6]
  NF-kB SEAP reporter activity: 0.54
RAW-Dual [2]; [7]
  NF-kB SEAP reporter activity: 0.425

## O=C1C(Cl)=C(N2CCOCC2)C(=O)N1c1ccc(Cl)c(Cl)c1
RAW-Dual [1]; [8]
  NF-kB SEAP reporter activity: 0.893
RAW-Dual [1]; [4]
  NF-kB SEAP reporter activity: 0.869

## Cc1ccc(-c2cc(C(F)(F)F)nn2-c2ccc(S(N)(=O)=O)cc2)cc1
RAW-Dual [1]; [8]
  NF-kB SEAP reporter activity: 1.37
RAW-Dual [1]; [4]
  NF-kB SEAP reporter activity: 1.42

## Cc1ccc(-c2cc(C(F)(F)F)nn2-c2ccc(S(N)(=O)=O)cc2)cc1 (library stock concentration (final ~1000-fold dilution): 10 mM)
RAW-Dual [2]; agonist: LPS (TLR4) 0.1 ug/mL
  NF-kB SEAP reporter activity: 0.486
RAW-Dual [2]; [5]
  NF-kB SEAP reporter activity: 0.625
RAW-Dual [2]; [6]
  NF-kB SEAP reporter activity: 0.358
RAW-Dual [2]; [7]
  NF-kB SEAP reporter activity: 0.371

## O=C(NCCN1CCOCC1)Nc1nc2ccc(Sc3nnc4ccc(-c5ccc(F)cc5)nn34)cc2s1 (library stock concentration (final ~1000-fold dilution): 10 mM)
RAW-Dual [2]; agonist: LPS (TLR4) 0.1 ug/mL
  NF-kB SEAP reporter activity: 0.775
RAW-Dual [2]; [5]
  NF-kB SEAP reporter activity: 0.868
RAW-Dual [2]; [6]
  NF-kB SEAP reporter activity: 0.991
RAW-Dual [2]; [7]
  NF-kB SEAP reporter activity: 0.922

## O=C(NCCN1CCOCC1)Nc1nc2ccc(Sc3nnc4ccc(-c5ccc(F)cc5)nn34)cc2s1
RAW-Dual [1]; [8]
  NF-kB SEAP reporter activity: 0.968
RAW-Dual [1]; [4]
  NF-kB SEAP reporter activity: 1.03
